PMC6919601, “Identification of Plasmodium dipeptidyl aminopeptidase allosteric inhibitors by high throughput screening” (PLoS ONE, 2019)
Among all 110,000 compounds or so, about 230 (0.21%) showed an effect of 50% or more. The list shows a part of the results.

biological target: DPAP1 (Plasmodium falciparum, UniProt Q8IIJ9); assay: primary screen, percent inhibition; read by cleavage of a fluorogenic dipeptide substrate; higher = more effect of the substance; set-up: species or system P. falciparum D10 trophozoite lysates; single well
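Further: 30 min substrate incubation versus DMSO and 10 µM JCP410 controls.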

Sequence of DPAP1 (Q8IIJ9 whole entry, looked up): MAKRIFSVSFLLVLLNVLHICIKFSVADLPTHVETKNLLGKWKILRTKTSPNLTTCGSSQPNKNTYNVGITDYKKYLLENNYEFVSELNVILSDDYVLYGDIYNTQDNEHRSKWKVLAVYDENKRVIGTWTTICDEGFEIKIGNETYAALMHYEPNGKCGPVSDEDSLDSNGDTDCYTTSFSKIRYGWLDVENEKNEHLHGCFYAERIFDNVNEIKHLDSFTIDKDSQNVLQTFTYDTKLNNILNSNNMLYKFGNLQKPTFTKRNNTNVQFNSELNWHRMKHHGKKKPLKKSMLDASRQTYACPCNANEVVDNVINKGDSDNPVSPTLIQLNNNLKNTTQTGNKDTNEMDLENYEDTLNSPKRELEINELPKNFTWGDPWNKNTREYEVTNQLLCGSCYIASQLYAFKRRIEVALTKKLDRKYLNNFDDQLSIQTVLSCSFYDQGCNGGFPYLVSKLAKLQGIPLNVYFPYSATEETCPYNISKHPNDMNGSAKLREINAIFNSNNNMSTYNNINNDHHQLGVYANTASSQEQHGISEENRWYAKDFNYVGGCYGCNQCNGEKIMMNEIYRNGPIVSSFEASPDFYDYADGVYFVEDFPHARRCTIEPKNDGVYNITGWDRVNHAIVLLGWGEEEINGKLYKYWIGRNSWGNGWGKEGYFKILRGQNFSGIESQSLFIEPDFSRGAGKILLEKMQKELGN

Compared with `CCC1C(=O)N=C(SCC(=O)Nc2nc3ccc(C(=O)OC)cc3s2)NC1=O` (stereo not shown), `COC(=O)c1ccc2c(c1)C(=O)/C(=C/c1ccc(OC)cc1OC)O2` is lower in “% Inhibition @ 10 uM” value: 4.54% for the first, -3.08% for the second.

Going from `CCN(Cc1ccccc1)C(=O)C(Cc1ccccc1)NS(=O)(=O)c1cccc2nsnc12` (stereo not shown) to `CS(=O)(=O)N(Cc1ccccc1)c1ccc(C(=O)Nc2ccccc2Br)cc1`, the “% Inhibition @ 10 uM” value rises from -9.06% to -5.67%.

Compared with `CC(C)CCNC(=O)c1ccc(CNS(=O)(=O)c2ccc(F)cc2)cc1`, `CC(C)NS(=O)(=O)c1ccc(CCC(=O)Nc2ccc(F)c(Cl)c2)cc1` is lower in “% Inhibition @ 10 uM” value: 5.28% for the first, -9.29% for the second.

Compared with `COc1ccc(-c2cn3nc(N4CCC(C(=O)NCCCN5CCCC5=O)CC4)sc3n2)cc1`, `COc1ccc(C2=NN(CC(=O)NCCCN3CCN(C)CC3)C(=O)CC2)cc1` is higher in “% Inhibition @ 10 uM” value: -2.77% for the first, 3.24% for the second.

First: Cc1ccccc1C(=O)Nc1ccccn1
Second: NC(=O)c1c(Nc2ccccc2)ccnc1O
The “% Inhibition @ 10 uM” value of the first is lower: 0.13% for the first, 0.774% for the second.

First: COc1ccc(N2C(=O)CCC2(C#N)c2ccccc2OCc2ccccc2)cc1 (stereo not shown)
Second: COc1ccc(C(=O)NC2=C(C(=O)c3ccccc3)N(C)S(=O)(=O)c3ccccc32)cc1
The “% Inhibition @ 10 uM” value of the first is higher: 4.32% for the first, 0.275% for the second.

Compared with `COC(=O)c1c(NC(=O)c2cc(=O)c3cc(C)ccc3o2)sc2c1CCCC2`, `CCOc1ccc(CC(=O)Nc2sc3c(c2C(N)=O)CCCC3)cc1OCC` is lower in “% Inhibition @ 10 uM” value: -5.08% for the first, -13.5% for the second.

Going from `CSc1ccc(NC(=O)c2sc3nc4c(cc3c2N)CCCC4)cc1` to `COCCOC(=O)Nc1nc2sc3c(c2s1)CCCC3`, the “% Inhibition @ 10 uM” value rises from -0.99% to 3.25%.

Compared with `O=C(Nc1ccc2c(c1)OCO2)c1ccccc1NC(=O)C1CCCCC1C(=O)O` (stereo not shown), `O=C(CNS(=O)(=O)c1ccc(Br)cc1)Nc1ccc2c(c1)OCCO2` is higher in “% Inhibition @ 10 uM” value: 4.11% for the first, 38.9% for the second.

Going from `CC(O)c1nc2ccccc2n1CCCCOc1ccccc1` (stereo not shown) to `Cn1c(/C(C#N)=C/c2ccccc2)nc2ccccc21`, the “% Inhibition @ 10 uM” value rises from -0.28% to 5.94%.

First: Cc1ccc(CNS(=O)(=O)c2ccc3[nH]c4c(c3c2)CCCC4)o1
Second: Cc1c(C(=O)O)oc2ccc(S(=O)(=O)NCc3ccccc3)cc12
The “% Inhibition @ 10 uM” value of the first is higher: 0.434% for the first, -5.92% for the second.

Going from `N=C(NOC(=O)CC1CCCCC1)c1ccncc1` to `O=C(CCC1CCCC1)Nc1ccncc1`, the “% Inhibition @ 10 uM” value falls from -0.0626% to -2.05%.

Going from `Cc1nnc(C)n1/N=C/c1cc(Br)cc(Br)c1O` to `Cc1cc(C)c(C(=O)/C=C/c2ccccc2F)c(O)n1`, the “% Inhibition @ 10 uM” value falls from 10.6% to 1.48%.

Compared with `O=C(CC(c1cccs1)N1Cc2ccccc2C1=O)NC1CCCC1` (stereo not shown), `COCc1cc(C)nc(SCC(=O)NC2CCCCC2)c1C#N` is lower in “% Inhibition @ 10 uM” value: -0.767% for the first, -4.77% for the second.

Compared with `O=C(C1CCCN(S(=O)(=O)N2CCOCC2)C1)N1CCN(Cc2ccccc2)CC1` (stereo not shown), `CC(=O)C(C(C)=O)=C(N)N1CCN(Cc2ccccc2)CC1` is lower in “% Inhibition @ 10 uM” value: 5.43% for the first, 3.42% for the second.

First: COCCNC(=O)Cn1cc(C=O)c2ccccc21
Second: Cc1cn(CC(=O)O)c(=O)c2ccccc12
The “% Inhibition @ 10 uM” value of the first is lower: -2.72% for the first, 0.635% for the second.

Compared with `CCOC(=O)N1CCN(C(=O)CSc2ncccn2)CC1`, `CCOC(=O)c1c(C)[nH]c(C)c1S(=O)(=O)N1CCC(C(=O)N2CCN(C)CC2)CC1` is higher in “% Inhibition @ 10 uM” value: -1.47% for the first, -0.188% for the second.

First: c1ccc(C2=NCCCCN2)cc1
Second: c1ccc(C2CCC(NCc3ccncc3)CC2)cc1 (stereo not shown)
The “% Inhibition @ 10 uM” value of the first is lower: 8.55% for the first, 97.8% for the second.

First: N#C/C(=C\c1cccc2ccccc12)c1nc(-c2cccs2)cs1
Second: O=c1c2ccccc2nc(-c2ccccc2)n1-c1ccccn1
The “% Inhibition @ 10 uM” value of the first is higher: -0.239% for the first, -4.39% for the second.

Compared with `C=CC(C)(C#CCN(CC)CC)OC(C)=O` (stereo not shown), `CCN(CCCNC(=O)c1sc2nc3n(c(=O)c2c1C)CCCCC3)Cc1ccccc1` is higher in “% Inhibition @ 10 uM” value: -11.6% for the first, 1.79% for the second.

First: Cc1c(CC(=O)NCc2ccc3c(c2)OCO3)c(=O)oc2c(C)c(O)ccc12
Second: Cc1oc2c(c(C)cc3oc(=O)c(CC(=O)O)c(C)c32)c1C
The “% Inhibition @ 10 uM” value of the first is lower: -0.808% for the first, 0.558% for the second.

Going from `CC(C)Oc1ccc(C(=O)N(Cc2ccco2)C2CCS(=O)(=O)C2)cc1` (stereo not shown) to `CC1(C)CC(OC(=O)c2ccco2)CC(C)(C)N1OC(=O)c1ccc(-n2cnnn2)cc1`, the “% Inhibition @ 10 uM” value falls from 0.569% to -4.91%.

First: N#CC1(c2ccccc2)CCc2[nH]c3ccccc3c2C1 (stereo not shown)
Second: COc1ccccc1-c1noc(CSc2nc3ccccc3[nH]2)n1
The “% Inhibition @ 10 uM” value of the first is higher: 5.04% for the first, -4.78% for the second.

Going from `CC1=Nc2nnnn2C(c2ccc(C)cc2)/C1=C(\O)OC1CCCCC1` (stereo not shown) to `COc1cccc(C(=O)N2CCC3(CC2)N=C(c2ccc(C)cc2)C(=O)N3)c1`, the “% Inhibition @ 10 uM” value rises from 3.61% to 5.27%.

Going from `CNS(=O)(=O)c1cnccc1N1CCN(c2cccc(C)c2)CC1` to `O=C1C(Cl)=C(N2CCN(c3ccccc3)CC2)C(=O)N1c1cccc(Cl)c1`, the “% Inhibition @ 10 uM” value falls from -1.59% to -5.07%.

First: COc1ccc(-c2cnc(OC(C)(C)C)nc2OC(C)(C)C)cc1
Second: CCOc1ccc(-c2nocc2C#N)cc1
The “% Inhibition @ 10 uM” value of the first is higher: -0.185% for the first, -3.27% for the second.

Going from `COc1cccc(C/N=C/C2=C(O)c3sccc3N(Cc3cccc(F)c3)S2(=O)=O)c1` to `COc1cccc(-c2cc(C(F)(F)F)n3ncc(-c4ccccc4)c3n2)c1`, the “% Inhibition @ 10 uM” value falls from 2.27% to -5.1%.

First: Cc1ccc(S(=O)(=O)N2CCN(Cc3ccccc3)CC2)cc1C
Second: O=C(NCCN1CCN(Cc2ccccc2Cl)CC1)C(=O)NCc1ccccc1
The “% Inhibition @ 10 uM” value of the first is higher: 1.4% for the first, -0.597% for the second.

First: CC(C)(C)c1ccc(C(=O)n2nc(-c3ccco3)nc2NCc2cccs2)cc1
Second: CCOc1ccccc1C(=O)Nc1c(C(=O)NC(C)(C)C)oc2ccccc12
The “% Inhibition @ 10 uM” value of the first is lower: -5.08% for the first, 5.25% for the second.

First: CC1CCN(c2ncnc3c2nnn3Cc2ccccc2)CC1
Second: c1ccc(CC2CCN(c3ncnc4sc5c(c34)CCCC5)CC2)cc1
The “% Inhibition @ 10 uM” value of the first is lower: -5.72% for the first, 2.92% for the second.

Compared with `COc1ccc2c(c1OC)C(=O)N(c1nc[nH]n1)C2`, `COc1ccc(-c2cc(C(F)(F)F)nc(SCC(=O)NCCCN3CCCC3=O)n2)cc1OC` is higher in “% Inhibition @ 10 uM” value: -3.77% for the first, 7.94% for the second.

First: Cc1nc2sccn2c(=O)c1S(=O)(=O)N1CCN(c2ccccn2)CC1
Second: CC(=O)N1CCC(N2CCN(c3ccccc3)CC2)CC1
The “% Inhibition @ 10 uM” value of the first is lower: -0.0709% for the first, -0.0648% for the second.

First: CC1Cc2nc(SCC(=O)NCc3ccc(F)cc3)n(CCc3ccccc3)c(=O)c2S1 (stereo not shown)
Second: O=C(CCn1nc(-c2ccccc2)c2ccccc2c1=O)NCc1ccccc1
The “% Inhibition @ 10 uM” value of the first is higher: 3.67% for the first, 0.565% for the second.

Going from `COC(=O)/C(C#N)=C/c1c[nH]c2ccccc12` to `C=CCNC(=O)C(=O)NCCc1c[nH]c2ccccc12`, the “% Inhibition @ 10 uM” value rises from -1.99% to 3.25%.

Compared with `CCOC(=O)c1ccc(-c2ccc(-c3c(C#N)c(N)n4c(nc5ccccc54)c3C#N)o2)cc1`, `CCCN1C(C(=O)c2ccccc2)=C(OC(=O)c2ccc(Cl)cc2)c2ccccc2S1(=O)=O` is higher in “% Inhibition @ 10 uM” value: -4.24% for the first, -2.99% for the second.

Compared with `O=c1c2ccccc2nc(CSc2ncnc3[nH]cnc23)n1-c1cccc(C(F)(F)F)c1`, `CCOC(=O)c1cnc2c(C(F)(F)F)cccc2c1NCc1ccccc1` is higher in “% Inhibition @ 10 uM” value: 1.62% for the first, 4.74% for the second.

Going from `COC(=O)c1oc2ccccc2c1N` to `CC1CCCC(C)N1C(=O)Cc1noc2ccccc12` (stereo not shown), the “% Inhibition @ 10 uM” value rises from -8.96% to 3.98%.

Compared with `C#CCN(C(=O)c1cnoc1C)c1ccc(Cl)cc1`, `COc1cc2nc(S)nc(NCCc3ccc(Cl)cc3)c2cc1OC` is higher in “% Inhibition @ 10 uM” value: -9.33% for the first, 5.58% for the second.

Going from `CCn1c(C(=O)NCc2ccc(F)cc2)cc2sc(Cl)cc21` to `Cc1cc(F)ccc1-c1ccc(C(=O)N[C@@H](CC(C)C)C(=O)NCC#N)cc1`, the “% Inhibition @ 10 uM” value rises from -4.85% to -3.04%.

First: O=c1c(Cc2ccccc2)c(O)cc(-c2ccncc2)n1-c1ccc(Cl)cc1
Second: COc1ccc(OC)c(CCNCc2c(C(=O)O)n(Cc3ccc(Cl)cc3)c3ccccc23)c1
The “% Inhibition @ 10 uM” value of the first is higher: 0.674% for the first, 0.277% for the second.

Going from `CCOC(=O)CCS(=O)(=O)c1ccc(Cl)c(Cl)c1` to `CC(=O)Nc1ccc(S(=O)(=O)Nc2cccc(F)c2)cc1`, the “% Inhibition @ 10 uM” value falls from 1.42% to -7.5%.

Compared with `Cc1ccc2[nH]c(C)c(/C=C3/C(=N)N4C(=NC3=O)SN=C4S(=O)(=O)CC(C)C)c2c1`, `Cc1cc(O)c(C2=NCCSC(c3ccc(C(C)C)cc3)C2)c(=O)o1` (stereo not shown) is higher in “% Inhibition @ 10 uM” value: -1.58% for the first, 6.43% for the second.

Compared with `COCCNC(=O)CCc1c(C)nc2c(c(C)nn2-c2ccccc2)c1C`, `Cc1ccc(NC2=NC(=O)C(CC(=O)Nc3ccccc3)S2)cc1Cl` (stereo not shown) is lower in “% Inhibition @ 10 uM” value: 0.953% for the first, -1.95% for the second.

Compared with `Cc1ccc(F)c(NC(=O)c2cc(C(F)(F)F)nn2C)c1`, `CNc1nc(Nc2ccc(C(C)=O)cc2)nc(OC(C(F)(F)F)C(F)(F)F)n1` is higher in “% Inhibition @ 10 uM” value: -4.01% for the first, 7.96% for the second.

Compared with `OCCCc1ccc(C(O)(C(F)(F)F)C(F)(F)F)o1`, `CCCOC(=O)c1ccc(NC(=O)c2ccc(Cn3cc(Br)cn3)cc2)cc1` is lower in “% Inhibition @ 10 uM” value: 1.29% for the first, 0.431% for the second.

Compared with `O=C(O)C(Cc1ccc(O)cc1)c1ccccc1` (stereo not shown), `N#CC1=C(N)Oc2cc(Nc3ccccc3)ccc2C1c1ccccc1` (stereo not shown) is lower in “% Inhibition @ 10 uM” value: 1.57% for the first, -0.99% for the second.

Going from `CCOc1ccc(NC(=O)CN2C(=O)S/C(=C/c3ccc(O)cc3)C2=O)cc1` to `Cc1ccc(OCCOc2ccc(C=C3C(=O)NC(=O)NC3=O)cc2)cc1`, the “% Inhibition @ 10 uM” value falls from 8.03% to -2.26%.

Going from `O=C(NC1CCCCC1)N1CCCCCCC1` to `O=C(c1cccc(C(=O)N2CCN(c3cccc(Cl)c3)CC2)c1)N1CCN(c2cccc(Cl)c2)CC1`, the “% Inhibition @ 10 uM” value falls from -0.551% to -2.78%.

Going from `N#CC1=C(N)N(c2cccnc2)C2=C(C(=O)CCC2)C1c1ccc(F)cc1` (stereo not shown) to `O=C(c1ccc(-c2ccccc2)cc1)N1CCN(c2ccc([N+](=O)[O-])cc2)CC1`, the “% Inhibition @ 10 uM” value rises from -2.87% to 3.1%.

First: CC(CC(=O)O)n1ccnc1 (stereo not shown)
Second: O=C(O)CCc1nc(O)c2c3c(sc2n1)CCC3
The “% Inhibition @ 10 uM” value of the first is lower: -4.27% for the first, 21.2% for the second.
